# Laboratory results reported in the supplement of paper PMC8728848.
# The list shows a part of the results.
# B1: MCI4 (Toxoplasma gondii), Q9XZH7 (protein)
# chain: MRASLPVHLVVCTQLSAVWFGVAKAHGGHRLEPHVPGFLQGFTDITPAGDDVSANVTSSEPAKLDLSCVHSDNKGSRAPTIGEPVPDVSLEQCAAQCKAVDGCTHFTYNDDSKMCHVKEGKPDLYDLTGGKTASRSCDRSCFEQHVSYEGAPDVMTAMVTSQSADCQAACAADPSCEIFTYNEHDQKCTFKGRGFSAFKERGVLGVTSGPKQFCDEGGKLTQEEMEDQISGCIQLSDVGSMTADLEEPMEADSVGACMERCRCDGRCTHFTFNDNTRMCYLKGDKMQLYSSPGDRTGPKSCDSSCFSNGVSYVDDPATDVETVFEISHPIYCQVICAANPLCTVFQWYASEAKCVVKRKGFYKHRKTGVTGVTVGPREFCDFGGSIRDREEADAVGSDDGLNAEATMANSPDFHDEVECVHTGNIGSKAQTIGEVKRASSLSECRARCQAEKECSHYTYNVKSGLCYPKRGKPQFYKYLGDMTGSRTCDTSCLRRGVDYSQGPEVGKPWYSTLPTDCQVACDAEDACLVFTWDSATSRCYLIGSGFSAHRRNDVDGVVSGPYTFCDNGENLQVLEAKDTE
# Columns and labels:
# Experiment in all cases: glycan array binding signal (z-score within array); higher = stronger binding
# Details in all cases: glycan notation: IUPAC condensed, linker removed
# [1] = target: Neu5Ac(a2-3)Gal(b1-4)[Fuc(a1-3)]GlcNAc
# How it was run: (§1)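 The binding signal is a Z-score computed within each array and averaged over linkers. Arrays of the same protein sequence at different concentrations or buffers were also averaged together. Data originate from 3228 arrays in the Consortium for Functional Glycomics database, kept only where the protein sequence was available.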
# [2] = target: Neu5Ac(a2-3)Gal(b1-4)[Fuc(a1-3)]GlcNAc(b1-3)Gal
# How it was run: as §1
# [3] = target: Neu5Ac(a2-3)Gal(b1-4)[Fuc(a1-3)]GlcNAc(b1-3)Gal(b1-4)GlcNAc
# How it was run: as §1
# [4] = target: Neu5Ac(a2-3)Gal(b1-4)[Fuc(a1-3)]GlcNAc(b1-3)Gal(b1-4)[Fuc(a1-3)]GlcNAc(b1-3)Gal(b1-4)[Fuc(a1-3)]GlcNAc
# How it was run: as §1
# [5] = target: Neu5Ac(a2-3)Gal(b1-4)[Fuc(a1-3)]GlcNAc(b1-6)[Gal(b1-3)]GalNAc
# How it was run: as §1
# [6] = target: Neu5Ac(a2-3)Gal(b1-4)[Fuc(a1-3)]GlcNAc6S
# How it was run: as §1
# [7] = target: Neu5Ac(a2-3)Gal6S(b1-4)GlcNAc
# How it was run: as §1
# [8] = target: Neu5Ac(a2-3)Gal6S(b1-4)[Fuc(a1-3)]GlcNAc
# How it was run: as §1
# Neu5Ac(a2-3)GalNAc = target: Neu5Ac(a2-3)GalNAc
# How it was run: as §1
# [9] = target: Neu5Ac(a2-3)GalNAc(b1-4)GlcNAc
# How it was run: as §1
# [10] = target: Neu5Ac(a2-3)[GalNAc(b1-4)]Gal(b1-4)Glc
# How it was run: as §1
# [11] = target: Neu5Ac(a2-3)[GalNAc(b1-4)]Gal(b1-4)GlcNAc
# How it was run: as §1
# [12] = target: Neu5Ac(a2-3)[Neu5Ac(a2-6)]GalNAc
# How it was run: as §1
# Neu5Ac(a2-6)Gal = target: Neu5Ac(a2-6)Gal
# How it was run: as §1
# Neu5Ac(a2-6)Gal(b1-4)Glc = target: Neu5Ac(a2-6)Gal(b1-4)Glc
# How it was run: as §1
# [13] = target: Neu5Ac(a2-6)Gal(b1-4)GlcNAc
# How it was run: as §1
# [14] = target: Neu5Ac(a2-6)Gal(b1-4)GlcNAc(b1-2)Man(a1-3)[Gal(b1-4)GlcNAc(b1-2)Man(a1-6)]Man(b1-4)GlcNAc(b1-4)GlcNAc
# How it was run: as §1
# [15] = target: Neu5Ac(a2-6)Gal(b1-4)GlcNAc(b1-2)Man(a1-3)[GlcNAc(b1-2)Man(a1-6)]Man(b1-4)GlcNAc(b1-4)GlcNAc
# How it was run: as §1
# [16] = target: Neu5Ac(a2-6)Gal(b1-4)GlcNAc(b1-2)Man(a1-3)[GlcNAc(b1-2)Man(b1-4)GlcNAc(b1-2)Man(a1-6)]Man(b1-4)GlcNAc(b1-4)GlcNAc
# How it was run: as §1
# [17] = target: Neu5Ac(a2-6)Gal(b1-4)GlcNAc(b1-2)Man(a1-3)[Neu5Ac(a2-6)Gal(b1-4)GlcNAc(b1-2)Man(a1-6)]Man(b1-4)GlcNAc(b1-4)GlcNAc
# How it was run: as §1
# [18] = target: Neu5Ac(a2-6)Gal(b1-4)GlcNAc(b1-2)Man(a1-6)[Gal(b1-4)GlcNAc(b1-2)Man(a1-3)]Man(b1-4)GlcNAc(b1-4)GlcNAc
# How it was run: as §1
# [19] = target: Neu5Ac(a2-6)Gal(b1-4)GlcNAc(b1-2)Man(a1-6)[GlcNAc(b1-2)Man(a1-3)]Man(b1-4)GlcNAc(b1-4)GlcNAc
# How it was run: as §1
# [20] = target: Neu5Ac(a2-6)Gal(b1-4)GlcNAc(b1-3)Gal(b1-4)GlcNAc
# How it was run: as §1
# [21] = target: Neu5Ac(a2-6)Gal(b1-4)GlcNAc(b1-3)Gal(b1-4)[Fuc(a1-3)]GlcNAc(b1-3)Gal(b1-4)[Fuc(a1-3)]GlcNAc
# How it was run: as §1
# [22] = target: Neu5Ac(a2-6)Gal(b1-4)GlcNAc6S
# How it was run: as §1
# Neu5Ac(a2-6)GalNAc = target: Neu5Ac(a2-6)GalNAc
# How it was run: as §1
# [23] = target: Neu5Ac(a2-6)GalNAc(b1-4)GlcNAc
# How it was run: as §1
# Neu5Ac(a2-8)Neu5Ac = target: Neu5Ac(a2-8)Neu5Ac
# How it was run: as §1
# [24] = target: Neu5Ac(a2-8)Neu5Ac(a2-3)Gal(b1-4)Glc
# How it was run: as §1
# [25] = target: Neu5Ac(a2-8)Neu5Ac(a2-3)[GalNAc(b1-4)]Gal(b1-4)Glc
# How it was run: as §1
# [26] = target: Neu5Ac(a2-8)Neu5Ac(a2-8)Neu5Ac
# How it was run: as §1
# [27] = target: Neu5Ac(a2-8)Neu5Ac(a2-8)Neu5Ac(a2-3)Gal(b1-4)Glc
# How it was run: as §1
# [28] = target: Neu5Ac(a2-8)Neu5Ac(a2-8)Neu5Ac(a2-3)[GalNAc(b1-4)]Gal(b1-4)Glc
# How it was run: as §1
# [29] = target: Neu5Ac(a2-8)Neu5Ac(a2-8)Neu5Ac(a2-8)Neu5Ac(a2-3)[GalNAc(b1-4)]Gal(b1-4)Glc
# How it was run: as §1
# [30] = target: Neu5Ac(b2-6)Gal(b1-4)GlcNAc
# How it was run: as §1
# Neu5Ac(b2-6)GalNAc = target: Neu5Ac(b2-6)GalNAc
# How it was run: as §1
# [31] = target: Neu5Ac9Ac(a2-6)Gal(b1-4)GlcNAc
# How it was run: as §1
# [32] = target: Neu5Gc(a2-3)Gal(b1-3)GlcNAc
# How it was run: as §1
# [33] = target: Neu5Gc(a2-3)Gal(b1-3)[Fuc(a1-4)]GlcNAc
# How it was run: as §1
# Neu5Gc(a2-3)Gal(b1-4)Glc = target: Neu5Gc(a2-3)Gal(b1-4)Glc
# How it was run: as §1
# [34] = target: Neu5Gc(a2-3)Gal(b1-4)GlcNAc
# How it was run: as §1
# [35] = target: Neu5Gc(a2-3)Gal(b1-4)[Fuc(a1-3)]GlcNAc
# How it was run: as §1
# [36] = target: Neu5Gc(a2-6)Gal(b1-4)GlcNAc
# How it was run: as §1
# Neu5Gc(a2-6)GalNAc = target: Neu5Gc(a2-6)GalNAc
# How it was run: as §1
# [37] = target: Neu5Gc(b2-6)Gal(b1-4)GlcNAc
# How it was run: as §1
binder,measurement,setting,value
B1,glycan array binding signal (z-score),[1],-0.212
same,glycan array binding signal (z-score),[2],-0.218
same,glycan array binding signal (z-score),[3],-0.196
same,glycan array binding signal (z-score),[4],-0.19
same,glycan array binding signal (z-score),[5],-0.166
same,glycan array binding signal (z-score),[6],-0.205
same,glycan array binding signal (z-score),[7],-0.214
same,glycan array binding signal (z-score),[8],-0.21
same,glycan array binding signal (z-score),Neu5Ac(a2-3)GalNAc,-0.222
same,glycan array binding signal (z-score),[9],-0.222
same,glycan array binding signal (z-score),[10],-0.2
same,glycan array binding signal (z-score),[11],-0.214
same,glycan array binding signal (z-score),[12],-0.222
same,glycan array binding signal (z-score),Neu5Ac(a2-6)Gal,-0.219
same,glycan array binding signal (z-score),Neu5Ac(a2-6)Gal(b1-4)Glc,-0.217
same,glycan array binding signal (z-score),[13],-0.209
same,glycan array binding signal (z-score),[14],-0.203
same,glycan array binding signal (z-score),[15],-0.207
same,glycan array binding signal (z-score),[16],-0.211
same,glycan array binding signal (z-score),[17],-0.213
same,glycan array binding signal (z-score),[18],-0.176
same,glycan array binding signal (z-score),[19],-0.207
same,glycan array binding signal (z-score),[20],-0.211
same,glycan array binding signal (z-score),[21],-0.229
same,glycan array binding signal (z-score),[22],-0.214
same,glycan array binding signal (z-score),Neu5Ac(a2-6)GalNAc,-0.214
same,glycan array binding signal (z-score),[23],-0.229
same,glycan array binding signal (z-score),Neu5Ac(a2-8)Neu5Ac,-0.194
same,glycan array binding signal (z-score),[24],-0.209
same,glycan array binding signal (z-score),[25],-0.209
same,glycan array binding signal (z-score),[26],-0.217
same,glycan array binding signal (z-score),[27],-0.208
same,glycan array binding signal (z-score),[28],-0.21
same,glycan array binding signal (z-score),[29],-0.226
same,glycan array binding signal (z-score),[30],-0.207
same,glycan array binding signal (z-score),Neu5Ac(b2-6)GalNAc,-0.226
same,glycan array binding signal (z-score),[31],-0.189
same,glycan array binding signal (z-score),[32],-0.219
same,glycan array binding signal (z-score),[33],-0.204
same,glycan array binding signal (z-score),Neu5Gc(a2-3)Gal(b1-4)Glc,-0.214
same,glycan array binding signal (z-score),[34],-0.209
same,glycan array binding signal (z-score),[35],-0.214
same,glycan array binding signal (z-score),[36],-0.204
same,glycan array binding signal (z-score),Neu5Gc(a2-6)GalNAc,-0.165
same,glycan array binding signal (z-score),[37],-0.203
